The text below walks through data of PubChem BioAssay AID1240 (Sanford-Burnham Center for Chemical Genomics, 2008).

Hit rate of the full screen: of about 50,000 compounds, about 800 (1.6%) showed an effect of 50% or more. Some of the results follow.

The target of the experiment is Bcl-2-like protein 10 (Homo sapiens) (UniProt Q9HD36). Briefly: TR3 peptide-Bcl-B binding displacers, biochemical primary FP assay, phenotype converters (AID 1240).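 Further: 0% = Bcl-B with tracer peptide and DMSO and 100% = tracer peptide lacking Bcl-B.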 As to conditions: GST-Bcl-B / FITC-TR3 peptide fluorescence polarization; stronger effect = higher value; compound at 3.75 mg/L. In general terms: In fluorescence polarisation assays a small probe gives low polarisation when free and higher when bound to something large.
Chain of UniProt Q9HD36 (Q9HD36 whole entry, looked up): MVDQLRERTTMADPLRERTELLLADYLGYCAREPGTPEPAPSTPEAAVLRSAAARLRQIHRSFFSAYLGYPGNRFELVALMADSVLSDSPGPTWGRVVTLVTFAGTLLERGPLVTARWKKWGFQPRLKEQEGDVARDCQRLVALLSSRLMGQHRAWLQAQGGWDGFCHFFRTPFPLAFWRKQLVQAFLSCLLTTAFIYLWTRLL
For `Cc1cc(/C=N/n2cnnc2)c(C)n1-c1cccc(Cl)c1`, the displacement is -2.8%.

Consider `Clc1ccc(-c2ncnn2-c2cccc(Cl)c2)cc1`, for which the displacement is -4%. Next, `COc1ccc(C(=O)Nc2cccc(-c3nc4ccccc4s3)c2)cc1Br`: 3.5%; `CCC(=O)N1c2ccccc2NC2=C(C(=O)CC(c3ccccc3)C2)C1c1cccc(Br)c1` (configuration not stated): 6%. Next, `O=C(/C=C/c1c[nH]c2ccccc12)c1ccc(Cl)cc1`: 11.1%; `CSc1ccc(/C=C2\C(=O)NC(=O)N(c3ccc(Br)c(C)c3)C2=O)cc1`: -4.9%; `CCN(CC)CCCNC(=O)c1ccc(OC)cc1OC`: -3.5%. Next, `CCOc1ccc(NC(=O)C(=O)N/N=C/c2cccs2)cc1`: -0.4%; `O=C(Nc1ccccc1)c1cccc(C(=O)Nc2ccccc2)c1`: -0.1%; `O=C1CC(c2ccccc2)CC(O)=C1C(C1=C(O)CC(c2ccccc2)CC1=O)c1ccc(O)c(O)c1` (configuration not stated): 10.8%.

Take `COc1cc(OC)cc(C(=O)N2CCN(C(=O)Cc3ccccc3)CC2)c1`: the displacement is -19.3%.

Regarding `CC(C)(c1ccccc1)c1ccc(OCc2ccc(C(=O)O)o2)cc1`, the displacement is 6.8%. For the compound `COc1cccc(/C=C2/C=C(c3ccc(C)cc3)OC2=O)c1`, the displacement came out at 7.5%. Next, `Cc1ccc(Cl)cc1NC(=O)C1CC(=O)N(c2ccc(F)cc2)C1` (configuration not stated): 6.6%. As for `O=C(Nc1sc2c(c1C(=O)O)CCCCC2)c1ccco1`, the displacement is -0.5%. Next, `Cc1c(-c2ccc(Cl)cc2)[n+](=O)c2c(n1[O-])CCC2`: 0.4%. In the case of `O=C(COc1ccc(Cl)cc1Cl)Nc1ccc2c(c1)OCO2`, the displacement came to 3.3%.

Take `Cc1cc(C)c2nc3s/c(=C\c4cc(Br)ccc4O)c(=O)n3c2c1`: the displacement was -17%.

In the case of `CCCCSc1nc2sc3c(c2c(=O)n1Cc1ccccc1)CCCC3`, the displacement was 9.3%. Next, `O=C(NCCCN1CCOCC1)c1ccc(Cl)cc1`: -3.7%; `CCC(C)C(=O)N1c2ccc(OC)cc2-c2c(ssc2=S)C1(C)C` (configuration not stated): -16.3%; `CCOC(=O)c1c(NC(=O)C2CCCCC2)sc(C)c1C`: 7%. For `COc1ccc(NC(=O)c2cnn3c2NC(c2ccco2)CC3C(F)(F)F)c(OC)c1` (configuration not stated), the displacement came out at 3.2%. For the compound `O=C(COc1ccccc1)Nc1cc(-c2ccc(F)cc2)[nH]n1`, the displacement came to 8.3%.

As for `C=CCn1c(=O)c(C(=O)Nc2ccccc2)c(O)c2ccccc21`, the displacement stood at 14.9%. Next, `O=C(N/N=C/c1cc(Cl)cc([N+](=O)[O-])c1O)c1ccc2c(c1)OCO2`: 20.5%. Next, `O=C(NCCc1ccccc1F)C(=O)Nc1nccs1`: 13.8%; `Cc1cc(NC(=O)CCCOc2ccc(Cl)cc2Cl)no1`: 10.5%; `CCOC(=O)c1c(-c2ccncc2)csc1N`: 6.2%. Next, `N/C(=N\OC(=O)Cc1ccc(Cl)cc1)c1cccnc1`: -3.8%; `O=C1/C(=C/c2ccc(O)cc2)SC(=S)N1Cc1ccco1`: -13.3%. As to `COc1ccccc1C(=O)Nc1cc2nn(-c3ccc(C)cc3)nc2cc1C`, the displacement is -9.2%.

As for `CCOc1ccc(NC(=O)C2=C(C)NC(=S)NC2c2ccc(C)cc2)cc1` (configuration not stated), the displacement is -4.5%. `COc1cc(C=C2C(=O)NC(=O)NC2=O)cc(Cl)c1OCCOc1ccc(C)c(C)c1`: the displacement stood at 3.1%. `CC1(C(=O)O)CCC(C(=O)Nc2ccc(S(N)(=O)=O)cc2)C1(C)C` (configuration not stated): the displacement turned out to be 1%.

As for `COc1ccc(N/C=C/C(=O)c2ccc(C)cc2)c(OC)c1`, the displacement is -22.2%. Next, `Cc1ccc(C(=O)/C=C/c2ccc(-c3ccccc3Br)o2)cc1`: 10.4%; `COC(=O)c1cccc(/C=C/N(C)C)c1[N+](=O)[O-]`: 13.7%; `COc1cc(/C=N\NC(N)=S)ccc1OC(=O)c1cc(F)c(F)cc1Cl`: 9.8%. Next, `Clc1ccc(CSc2nc3ncccc3[nH]2)cc1Cl`: 9.4%; `Cc1ccc(S(=O)(=O)Nc2cc(Cl)c(O)c(Cl)c2)cc1`: 2.1%.

Consider `CCc1c(O)nc2n(c1=O)CCCS2`, for which the displacement was determined as 12.8%.

Consider `CCn1c2ccccc2c2cc(CNc3cc([N+](=O)[O-])ccc3OC)ccc21`, for which the displacement came out at 8.6%.

For `CC(=O)N(C)c1ccc(NC(=S)Nc2ccc(F)cc2)cc1`, the displacement was -10.8%.

Regarding `O=C(CC1S/C(=N\N=C\c2ccccc2)NC1=O)Nc1ccc(C(=O)O)cc1` (configuration not stated), the displacement was determined as 69.5%. Next, `O=C1c2c(Cl)c(Cl)c(Cl)c(Cl)c2C(=O)N1c1cc2c(cc1Br)OCCO2`: -3.4%; `Cc1ccc(NC(=O)c2cccc(F)c2)cc1Cl`: -0.3%; `COc1ccc(/C=C/C(=O)c2ccc(F)cc2)c(OC)c1`: 31.4%. Next, `CC(C)(C)c1ccc(OCC(=O)Nc2ccc(NC(=O)c3ccco3)cc2)cc1`: -36%; `Cc1cccc(N2C(=O)/C(=C/c3ccc(I)cc3)SC2=S)c1`: -4.4%.

For the compound `CCCN1CCc2c(sc3[nH]c(=S)n(CCc4ccccc4)c(=O)c23)C1`, the displacement is -8.4%. Next, `COc1cccc(OCCCCS)c1`: 10%; `Cc1ccc(-n2c(C)cc(/C=C3\SC(=O)NC3=O)c2C)cc1C`: 1.9%; `O=C1C(=Cc2ccc(Br)cc2)C(=O)c2ccccc21`: 17.6%. As to `O=C(O)C1CCCCC1C(=O)Nc1nc(-c2cccc3ccccc23)cs1` (configuration not stated), the displacement is -3.7%. Consider `O/N=C(/c1ccccc1)c1cc2c(s1)CCCC/C2=N/O`, for which the displacement is -1.2%. For the compound `NC(=O)c1nn2c(C(F)(F)F)cc(-c3ccccc3)nc2c1Cl`, the displacement was -7.4%. Next, `O=C(Nc1ccc(OC(F)(F)F)cc1)c1ccccc1Br`: -0.9%; `CC(=O)c1c(C)n(S(=O)(=O)c2ccccc2)c2ccc(NS(=O)(=O)c3ccccc3)cc12`: 8%; `O=C(CSc1nc2ccccc2s1)NC(c1ccccc1)c1ccccc1`: 5.2%.

`NC(=O)c1c(NC(=O)CCN2C(=O)c3ccccc3C2=O)sc2c1CCC2`: the displacement was 13.1%. In the case of `CC(=O)n1cc(/C=C2\N=C(c3ccccc3F)OC2=O)c2ccccc21`, the displacement worked out at 7.6%. Next, `N/C(=N\OCC(=O)Nc1ccccc1)c1nonc1N`: -1.1%. Next, `CCC(=O)Nc1ccc(NC(=O)c2ccc(OC)c([N+](=O)[O-])c2)cc1`: 1.6%; `CC(=O)Nc1ccc(NC(=O)c2ccccc2OC(F)F)cc1`: 13.2%; `CC1(C)Cc2c(sc(NC(=O)Nc3ccccc3)c2C(N)=O)CO1`: -5.6%. With `C=CCc1ccccc1OCCn1cc(C=C2C(=O)NC(=S)NC2=O)c2ccccc21`, the displacement stood at 53.6%.

For the compound `Cc1ccc(CSCCNC(=O)c2ccc(OC3CSC3)cc2)cc1`, the displacement was -15.9%. In the case of `O=C(Nc1cccc(C(F)(F)F)c1)c1c(O)c2ccccc2[nH]c1=O`, the displacement came to 5.9%. Next, `C/C(=C1/SC(N2CCOCC2)=NC1=O)c1ccc(Cl)cc1`: 31%; `CCOc1cc(C=O)cc(I)c1OCc1ccc([N+](=O)[O-])cc1`: 0.1%. Next, `COc1ccc(OC)c(N(CC(=O)Nc2ccc(C(C)C)cc2)S(C)(=O)=O)c1`: 16%; `Cc1ccc(C(=O)c2ccc([N+](=O)[O-])cc2)c(C)c1`: 12.3%.

As for `CCOC(=O)CSc1nnc2c3ccccc3n(C)c2n1`, the displacement was -6.2%. Next, `NS(=O)(=O)c1cccc(NC(=O)c2cccc3ccccc23)c1`: -8.4%; `O=C1c2cc(S(=O)(=O)NCCCO)ccc2-c2ccc(S(=O)(=O)NCCCO)cc21`: 10.9%. Next, `CCN1C(=O)/C(=C\c2cn(Cc3ccccc3)c3ccccc23)SC1=S`: 3.3%; `O=C(O)CCCN1C(=O)/C(=C/c2ccccc2)SC1=S`: -3.4%. `COCCCNC(=O)C(=O)NCCc1ccc(OC)cc1`: the displacement was determined as 12.7%.

For the compound `COC(=O)CN(c1ccc(OC)cc1OC)S(=O)(=O)c1ccccc1[N+](=O)[O-]`, the displacement is -2.5%.

In the case of `COc1ccc(C(=O)Nc2ccc3c(c2)Cc2ccccc2-3)cc1`, the displacement was determined as 15.2%. With `COc1ccccc1NC(=O)N1CCN(c2cccc(C(F)(F)F)c2)CC1`, the displacement worked out at 9.8%. As to `Cc1ccc(C)c(Cc2cc([N+](=O)[O-])ccc2C)c1`, the displacement was determined as 6.5%.

For `CCOc1ccc2nc(NC(=O)CCC(=O)O)sc2c1`, the displacement was found to be 13.6%.

As for `CN(C)c1ccc(C(=O)N2CCN(c3cccc(Cl)c3)CC2)cc1`, the displacement turned out to be 16.7%.

Consider `Cc1ccc(NC(=S)NC(=O)c2ccco2)c(Br)c1`, for which the displacement stood at 4.9%. Next, `COc1cccc(C(=O)Nc2ccc(Cl)c(-c3nc4cc(Cl)ccc4o3)c2)c1`: 105%. For the compound `C=CCNC(=O)c1ccc(-c2cccc(Cl)c2)o1`, the displacement stood at 8%. Turning to `CCOc1ccc(/C=C2/SC(=S)N(CC(=O)O)C2=O)c(OCC)c1`, the displacement was 9.6%. Next, `COC(=O)c1ccc(/C=C2/N=C(c3ccc(OC)cc3)N(c3ccc(F)cc3)C2=O)cc1`: 38.1%. Next, `COc1ccc(NC(=O)/C(=C/c2cccs2)NC(=O)c2cccs2)cc1`: -10.7%; `O=C(O)/C=C/c1ccc(N2Cc3ccccc3C2)cc1`: -4.6%; `Oc1ccc(C=NCC2(c3ccccc3)CCCC2)cc1`: -2.1%. Next, `Cc1ccccc1C(=O)Nc1cccc(N)c1`: 11.9%; `COc1ccccc1C1CC(c2ccc(C)cc2)=NN1C(C)=O` (configuration not stated): 15.9%. Turning to `Fc1cccc(/C=N/N2CCN(Cc3cccc4ccccc34)CC2)c1`, the displacement came out at 8%. Next, `CC(C)(C)c1nnc(NC(=O)Nc2ccc(Cl)cc2)s1`: 11.1%. In the case of `COc1ccc(C(O)Cc2nc3ccccc3n2C)cc1` (configuration not stated), the displacement was found to be 2.8%. Next, `COc1ccc(OCC(=O)NCCc2ccc(OC)c(OC)c2)cc1`: 4.5%; `O=C(/C=C/c1ccc(-c2ccc(Cl)cc2Cl)o1)c1ccccc1`: 18.3%; `Cc1ccc(C2=NN(C(=O)CCC(=O)O)C(c3cccc([N+](=O)[O-])c3)C2)cc1` (configuration not stated): 11.2%. Next, `COc1cc(NC(=O)C2CC2)c(OC)cc1Cl`: 3.8%. For the compound `O=C(Nc1cccc(Br)c1)c1ccc([N+](=O)[O-])cc1Cl`, the displacement amounted to 0.8%. In the case of `O=C(Nc1ccc(Cl)c(Cl)c1)Nc1nnc(COc2ccc([N+](=O)[O-])cc2)s1`, the displacement came to 8.3%. Turning to `COc1cc(NS(=O)(=O)c2ccc(F)cc2)c(OC)cc1NC(C)=O`, the displacement is 5.2%.

Consider `CCOc1ccc(NS(=O)(=O)c2ccc3nsnc3c2)cc1`, for which the displacement was -3.3%. With `COc1ccc(CN2CCCN(Cc3ccc(OC)cc3)C2c2ccc(F)cc2)cc1`, the displacement amounted to 2.8%. As for `CNc1cc([N+](=O)[O-])ccc1N/C=C\C(=O)c1ccc2ccccc2c1`, the displacement worked out at 14.1%.

For the compound `Clc1cccc(Cl)c1OCCCN1CCOCC1`, the displacement was 5.8%. For `O=C1NC(=O)N(c2ccccc2F)C(=O)/C1=C/c1ccc(OCc2cccc(C(=O)O)c2)cc1`, the displacement is 10.7%. Next, `COC(=O)C1=C(C)NC2=C(C(=O)c3ccccc32)C1c1ccc(-c2ccc([N+](=O)[O-])cc2OC)o1` (configuration not stated): 9.1%; `CN1CCC(O)N1C(=O)c1ccccc1O` (configuration not stated): 12.7%.
